The results in this text go back to article PMC5177899, “Angiotensin II increases glomerular permeability by β-arrestin mediated nephrin endocytosis” (Scientific Reports, 2016).

In the assay the target is T1, Ig.nephrin, membrane-bound fusion protein of the C-terminal cytoplasmic domain of nephrin (AA 1087-1241) (human, UniProt O60500 1087-1241).
T1 construct: pCDM8 cassette: CD5 leader, CH2-CH3 of human IgG1, CD7 transmembrane region, then the nephrin stretch; also called nephrin c-terminus; source: HEK293T, transiently transfected, in lysate; not shown: transmembrane region of CD7, N-terminal, kept
T1 sequence (looked up): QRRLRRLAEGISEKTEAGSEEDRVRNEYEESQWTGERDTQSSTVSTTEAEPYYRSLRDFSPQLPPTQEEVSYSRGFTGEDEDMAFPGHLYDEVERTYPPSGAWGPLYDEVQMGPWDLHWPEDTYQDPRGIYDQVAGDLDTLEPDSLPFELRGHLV
In words: co-IP; HEK293T transiently transfected (Ig.nephrin fusion, partner, AT1 receptor), with or without Ang II (1 μM, up to 60 min) and inhibitors (candesartan, PP2, PTX, Ly294002, U73122) or GNAQ siRNA; 1% Triton X-100 lysate, protein G sepharose 1 h at 4 °C; Western blot. The following applies: partners not purified. On the technique in general: A western blot detects proteins with antibodies after separation by electrophoresis.

B1: FLAG-tagged β-arrestin2 (natural protein)
chain: not shown
notes: β-arrestin2; plasmid a gift from Dr. Robert Lefkowitz; The Lefkowitz FLAG-β-arrestin2 plasmid is, as far as I recall, the rat cDNA; also called F.β-arrestin2; source: HEK293T, transiently transfected, in lysate
As for B1, the “fold enhancement of β-arrestin2 co-precipitated with nephrin, 60 min Ang II against no Ang II” value is 3 fold.
